PubChem BioAssay (NCATS)
Several values for one entry are separate records, joined by “and”; a condition that tells them apart may be missing. Equal entries are not always repeated. Inconclusive results, whose numbers are uncertain, are shown with a selection of clear calls. For some assays here: A potency beside an inconclusive call is a rough fit, not a confirmed value. Activity calls are given as the source filed them. Unless noted, calls come from the whole dose curve; as a rule, active = well fitted curve in the direction sought with a large enough effect; inconclusive = small, poorly fitted or top-dose-only effect, or another doubt; inactive = no such curve, though single readings can be large; an effect the other way counts as inactive or inconclusive.

Key:
[1] = qHTS of pediatric cancer cell lines to identify multiple opportunities for drug repurposing: Primary screen for NB-EBc1 cells (AID 1347095); note: potency is the fitted concentration of half-maximal effect
In short: (§1)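 Plated cells (500-1,000 per well, growth media) were allowed to settle for 5 hours, treated with compound dilutions for 48 hours, then lysed with CellTiter-Glo for 15 min at room temperature before luminescence reading.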

[2] = qHTS of pediatric cancer cell lines to identify multiple opportunities for drug repurposing: Primary screen for NB1643 cells (AID 1347099); note: nearly all actives have a fitted effect of over 50% in size; note: potency is the fitted concentration of half-maximal effect
In short: as §1

[3] = qHTS of pediatric cancer cell lines to identify multiple opportunities for drug repurposing: Primary screen for LAN-5 cells (AID 1347100); note: potency is the fitted concentration of half-maximal effect
In short: (§2)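 Cells (500-1,000/well) rested 5 h, then received compounds for 48 h; metabolically active cells were measured by CellTiter-Glo luminescence. Final concentrations spanned up to 46 µM (MIPE, 11-point) or 0.59 nM-46 µM (NPC, 8-point) in primary screens, 11-point in follow-ups.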

[4] = tested on: WaGa; test: qHTS assay to identify novel small-molecules to repurpose for Merkel cell carcinoma treatment (AID 1296009); details: MCC and control cell lines, CellTiter-Glo viability, 72 h; series mostly up to 46 µM; note: nearly all actives have a fitted effect of over 60% in size; note: potency is the fitted concentration of half-maximal effect
In short: (§3)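 After compound transfer in DMSO, plates were kept 72 hr at 37 degree celsius. Luminescent ATP signal from CellTiter-Glo served as viability measure, normalized against DMSO and no-cell controls.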

[5] = qHTS of pediatric cancer cell lines to identify multiple opportunities for drug repurposing: Primary screen for DAOY cells (AID 1347090); details: DAOY medulloblastoma viability, CellTiter-Glo luminescence, 48 h; activity change, negative = cytotoxic: at 46 µM (top of the series); note: nearly all actives have a fitted effect of over 55% in size; note: potency is the fitted concentration of half-maximal effect
In short: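 Cell viability, CellTiter-Glo luminescence; 500-1,000 cells/well, 8- or 11-point titration, 48 h compound exposure at 37 degrees C, 5% CO2. Controls: DMSO neutral, bortezomib 2.3 µM final as positive.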

[6] = qHTS of pediatric cancer cell lines to identify multiple opportunities for drug repurposing: Primary screen for BT-37 cells (AID 1347094); note: potency is the fitted concentration of half-maximal effect
In short: as §1

[7] = Primary qHTS for small molecule stabilizers of the endoplasmic reticulum resident proteome: Secreted ER Calcium Modulated Protein (SERCaMP) assay (AID 1508630); details: SH-SY5Y GLuc-SERCaMP (Gaussia luciferase released on ER calcium loss) secretion, thapsigargin, luminescence; activity change, negative = inhibition: at 38.4 µM (top of the series) unless noted; note: potency is the fitted concentration of half-maximal effect
In short: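 GLuc-SERCaMP-expressing SH-SY5Y cells, pretreated 16 h with compound, are challenged with thapsigargin to empty ER calcium stores; after 4 h, coelenterazine is added directly to the medium and luminescence is imaged.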

[8] = target: Cytochrome P450 2C9 (Homo sapiens) (UniProt P11712); test: Cytochrome P450 family 2 subfamily C member 9 (CYP2C9) small molecule antagonists: luciferase biochemical (cell-free) qHTS assay (AID 1645842; active = well fitted curve in the direction sought with a large enough effect in the repeat runs; inconclusive = weak or mixed curves; inactive = no such curve, though single readings can be large; an effect the other way counts as inactive or inconclusive; note: nearly all actives have a fitted effect of over 55% in size)
In short: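 Luminescence, after 20 min with luciferin detection reagent, reflected CYP2C9 turnover during a 1 h NADPH-driven reaction at 37C. Enzyme-substrate mix contained 0.4% bovine serum albumin and was preincubated with compound 10 min at room temperature.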

[9] = tested on: MCC-26; test: qHTS assay to identify novel small-molecules to repurpose for Merkel cell carcinoma treatment (AID 1296009); details: MCC and control cell lines, CellTiter-Glo viability, 72 h; activity change, negative = cytotoxicity: at 46 µM (top of the series); note: nearly all actives have a fitted effect of over 60% in size; note: potency is the fitted concentration of half-maximal effect
In short: as §3

[10] = tested on: MKL-2; test: as above; details: MCC and control cell lines, CellTiter-Glo viability, 72 h; activity change, negative = cytotoxicity: at 46 µM (top of the series)
In short: as §3

[11] = NS1 protein of Zika virus - qHTS assay to identify small molecule inhibitors in human HEK 293 cells (AID 1347053); note: potency is the fitted concentration of half-maximal effect; nearly all actives have a fitted effect of over 55% in size
In short: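 HEK 293 cells, seeded 20 h at 37 C, were pretreated with compound 1 h, then infected with ZIKV MR766 (MOI = 0.5) for 24 h. NS1 was read by TR-FRET with two anti-NS1 antibodies, normalized to uninfected and infected wells.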

[12] = qHTS of pediatric cancer cell lines to identify multiple opportunities for drug repurposing: Primary screen for SK-N-SH cells (AID 1347098); note: potency is the fitted concentration of half-maximal effect; nearly all actives have a fitted effect of over 65% in size
In short: as §2

[13] = qHTS of pediatric cancer cell lines to identify multiple opportunities for drug repurposing: Primary screen for BT-12 cells (AID 1347101); note: potency is the fitted concentration of half-maximal effect; nearly all actives have a fitted effect of over 25% in size
In short: as §2

[14] = qHTS to identify inhibitors of the type 1 interferon - major histocompatibility complex class I in skeletal muscle: primary screen against the NCATS Mechanism Interrogation Plate v5.0 (MIPE) Libary (AID 1347411); details: iHSKM cells + IFN-b, HiBiT-tagged MHC-I luminescence, 24 h; activity change, negative = inhibition: at 45.8 µM (top of the series); note: potency is the fitted concentration of half-maximal effect; nearly all actives have a fitted effect of over 65% in size
In short: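 Cells were genome-edited human myoblasts carrying a HiBit tag on endogenous HLA-B. They were treated with IFN-beta (4.0 ng/ml) and titrated compounds (top 46 uM) for 24 hrs before lytic HiBiT detection.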

[15] = Quantitative High-Throughput drug screen in 47 multiple myeloma cell lines against the NCATS MIPE library collection: Karpas417_ECACC cell viability assay (AID 1918961); details: Karpas417 myeloma viability, CellTiter-Glo ATP luminescence, 48 h; viability (% of DMSO): at 45.8 µM (top of the series); note: potency is the fitted concentration of half-maximal effect
In short: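 We plated 500 myeloma cells per well, pinned in MIPE 4.0 compounds, and incubated for 48 hours at 37C. ATP was then quantified with CellTiter-Glo, with DMSO and media-only wells defining 100% and 0%.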

[16] = Quantitative High-Throughput drug screen in 47 multiple myeloma cell lines against the NCATS MIPE library collection: KMS20_JCRB cell viability assay (AID 1918973); details: CellTiter-Glo ATP, 48 h; viability (% of DMSO): at 45.8 µM (top of the series); note: potency is the fitted concentration of half-maximal effect; nearly all actives have a fitted effect of over 45% in size
In short: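 qHTS of the MIPE 4.0 collection: 500 myeloma cells/well, 48 h drug exposure at 37C in 5% CO2, then CellTiter-Glo for 5 min at room temperature before luminescence reading.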

[17] = qHTS for identification of novel therapeutic agents for treatment of microphthalmiaassociated transcription factor (MiT) renal cell carcinoma (RCC) (AID 1963991; calls by dose curve; note: potency is the fitted concentration of half-maximal effect); details: TFE3-RCC UOK109 viability, CellTiter-Glo, 48 h; active = Z-AUC below -0.8 in all three lines
In short: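 Three TFE3-fusion RCC cell lines (UOK109, UOK124, UOK145), 500 cells/well, were exposed to the 1912-compound MIPE 4.0 library for 48 hours at 37 C. Viability was read by CellTiter-Glo luminescence, normalised to DMSO (100%) and empty wells (0%), with 11-concentration curve fits.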

[18] = tested on: JEG-3; test: Primary qHTS to identify gynecologic anti-cancer compounds using libraries of approved drugs and bioactive compounds (AID 1345084); details: Gynecologic cancer cell panel viability, ATPlite luminescence, 48 h; series mostly up to 57.5 µM; note: potency is the fitted concentration of half-maximal effect; nearly all actives have a fitted effect of over 55% in size
In short: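 Five-concentration response, 48 h; readout is ATP-driven luciferase luminescence.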
Tags give direction and shape of the fitted curve.

Chain of UniProt P11712 (P11712 whole entry, looked up): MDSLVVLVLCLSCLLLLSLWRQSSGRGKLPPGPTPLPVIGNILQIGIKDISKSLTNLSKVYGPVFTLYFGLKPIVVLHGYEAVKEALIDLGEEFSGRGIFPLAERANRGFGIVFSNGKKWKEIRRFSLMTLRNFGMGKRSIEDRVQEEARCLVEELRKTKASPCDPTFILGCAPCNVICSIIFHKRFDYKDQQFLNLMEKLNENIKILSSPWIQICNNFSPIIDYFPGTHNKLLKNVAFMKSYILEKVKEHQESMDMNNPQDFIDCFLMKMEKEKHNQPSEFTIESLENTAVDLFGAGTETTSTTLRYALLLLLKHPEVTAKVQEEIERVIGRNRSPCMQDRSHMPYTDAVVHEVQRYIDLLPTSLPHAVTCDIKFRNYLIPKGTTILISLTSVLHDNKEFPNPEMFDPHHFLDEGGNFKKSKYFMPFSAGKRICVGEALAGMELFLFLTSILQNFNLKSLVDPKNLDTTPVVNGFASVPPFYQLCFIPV

CCCCCCCCCCCCCCCCCCN(C)C
Potency [1]: inactive | Potency [2]: inactive | Potency [3]: inactive | Potency [4]: inactive

CC1(C)O[C@@H]2C[C@H]3[C@@H]4CCC5=CC(=O)C=C[C@]5(C)[C@@]4(F)[C@@H](O)C[C@]3(C)[C@]2(C(=O)CO)O1
Potency [5]: inactive | Potency [6]: inactive | Potency [2]: inconclusive: 33.5 µM [cytotoxic, single point] | Potency [7]: inactive | Potency [8]: inactive | Potency [9]: inactive

CSCC[C@H](NC(=O)[C@H](Cc1c[nH]c2ccccc12)NC(=O)CCNC(=O)OC(C)(C)C)C(=O)N[C@@H](CC(=O)O)C(=O)N[C@@H](Cc1ccccc1)C(N)=O
Potency [7]: inconclusive: 35.5 µM [inhibitor, partial curve, poor fit] | Potency [9]: inactive | Potency [10]: inactive

Cn1cc(C2=C(c3c4n(c5ccccc35)CCC(CN)C4)C(=O)NC2=O)c2ccccc21 (stereo not given)
Potency [11]: active: 13.2 µM | Potency [5]: inconclusive: 37.2 µM [cytotoxic, single point] | Potency [6]: active: 27.3 µM | Potency [12]: active: 24.1 µM | Potency [13]: active: 27.3 µM | Potency [14]: inconclusive: 7.56 µM [inhibitor, single point] | Potency [7]: inconclusive: 7.49 µM [inhibitor, single point] | Potency [15]: active: 9.35 µM | Potency [16]: active: 6.62 µM | Potency [17]: inconclusive: 16.6 µM [falling, partial curve] | Potency [9]: inconclusive: 26.4 µM [inhibitor, single point] | Potency [4]: active: 20.9 µM

COc1ccc2cc3[n+](cc2c1OC)CCc1cc2c(cc1-3)OCO2
Potency [11]: inconclusive: 33.2 µM [inhibitor, single point] | Potency [6]: inconclusive: 13.8 µM [cytotoxic, partial curve] and inconclusive: 7.69 µM [cytotoxic, partial curve] | Potency [1]: inconclusive: 21.1 µM [cytotoxic, partial curve] and inconclusive: 10.5 µM [cytotoxic, partial curve] | Potency [12]: inconclusive: 27.3 µM [cytotoxic, single point] | Potency [3]: active: 10.6 µM and active: 16.6 µM | Potency [14]: inconclusive: 10.4 µM [inhibitor, partial curve, poor fit] | Potency [7]: inactive and inconclusive: 18.8 µM [inhibitor, partial curve, poor fit] | Potency [8]: inactive | Potency [15]: active: 9.35 µM | Potency [16]: inconclusive: 8.33 µM [cytotoxic, partial curve, poor fit] | Potency [17]: inconclusive: 20.9 µM | Potency [18]: inconclusive: 5.62 µM [rising, partial curve, poor fit] | Potency [4]: active: 2.09 µM

CCc1c2c(nc3ccc(O)cc13)-c1cc3c(c(=O)n1C2)COC(=O)[C@]3(O)CC
Potency [11]: active: 0.0037 µM | Potency [5]: active: 0.0296 µM | Potency [2]: active: 0.0235 µM | Potency [3]: active: 1 nM | Potency [14]: active: 1.17 µM | Potency [7]: inactive | Potency [15]: active: 0.332 µM | Potency [16]: active: 0.118 µM | Potency [17]: active: 0.469 µM | Potency [18]: active: 8.91 µM | Potency [9]: active: 0.0372 µM | Potency [10]: active: 0.0418 µM

Cc1onc(C(=O)N2CCN(C(c3ccc(Cl)cc3)c3ccc(Cl)cc3)CC2)c1[N+](=O)[O-]
Potency [18]: inconclusive: 11.2 µM [cytotoxic, partial curve]

Cc1cnn(C)c1C(=O)Nc1cc(Nc2ccc3c(C=Cc4ccccn4)n[nH]c3c2)ccc1F
Potency [11]: inconclusive: 2.64 µM [inhibitor, full curve, poor fit] | Potency [5]: inconclusive: 14.8 µM [cytotoxic, partial curve] | Potency [1]: inconclusive: 29.6 µM [cytotoxic, single point] | Potency [12]: inconclusive: 24.1 µM [cytotoxic, single point] | Potency [2]: active: 14.8 µM | Potency [3]: active: 14800 nM | Potency [13]: active: 10.9 µM | Potency [7]: inconclusive: 23.7 µM [inhibitor, partial curve, poor fit] | Potency [15]: inconclusive: 4.69 µM [cytotoxic, full curve, poor fit] | Potency [16]: inconclusive: 4.69 µM [cytotoxic, full curve, poor fit] | Potency [17]: inconclusive: 16.6 µM [falling, partial curve] | Potency [9]: inconclusive: 13.2 µM [inhibitor, partial curve] | Potency [10]: inconclusive: 18.7 µM [inhibitor, partial curve, poor fit] | Potency [4]: inconclusive: 20.9 µM [inhibitor, single point]
